Reference: PMC4336329 (PLoS ONE, 2015)
The whole screen tested about 310,000 compounds, of which about 14,000 (4.5%) showed an effect of 50% or more. Effects have a minus sign here. Some of the results follow.

Molecular target: human ether-à-go-go-related gene (hERG) potassium channel (human, UniProt Q12809)
Test: primary screen, population patch clamp on CHO cells stably expressing hERG
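Note: peak tail current of the secondary pulse compared with the same well before compound.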

Chain of human ether-à-go-go-related gene (hERG) potassium channel (Q12809 whole entry, looked up): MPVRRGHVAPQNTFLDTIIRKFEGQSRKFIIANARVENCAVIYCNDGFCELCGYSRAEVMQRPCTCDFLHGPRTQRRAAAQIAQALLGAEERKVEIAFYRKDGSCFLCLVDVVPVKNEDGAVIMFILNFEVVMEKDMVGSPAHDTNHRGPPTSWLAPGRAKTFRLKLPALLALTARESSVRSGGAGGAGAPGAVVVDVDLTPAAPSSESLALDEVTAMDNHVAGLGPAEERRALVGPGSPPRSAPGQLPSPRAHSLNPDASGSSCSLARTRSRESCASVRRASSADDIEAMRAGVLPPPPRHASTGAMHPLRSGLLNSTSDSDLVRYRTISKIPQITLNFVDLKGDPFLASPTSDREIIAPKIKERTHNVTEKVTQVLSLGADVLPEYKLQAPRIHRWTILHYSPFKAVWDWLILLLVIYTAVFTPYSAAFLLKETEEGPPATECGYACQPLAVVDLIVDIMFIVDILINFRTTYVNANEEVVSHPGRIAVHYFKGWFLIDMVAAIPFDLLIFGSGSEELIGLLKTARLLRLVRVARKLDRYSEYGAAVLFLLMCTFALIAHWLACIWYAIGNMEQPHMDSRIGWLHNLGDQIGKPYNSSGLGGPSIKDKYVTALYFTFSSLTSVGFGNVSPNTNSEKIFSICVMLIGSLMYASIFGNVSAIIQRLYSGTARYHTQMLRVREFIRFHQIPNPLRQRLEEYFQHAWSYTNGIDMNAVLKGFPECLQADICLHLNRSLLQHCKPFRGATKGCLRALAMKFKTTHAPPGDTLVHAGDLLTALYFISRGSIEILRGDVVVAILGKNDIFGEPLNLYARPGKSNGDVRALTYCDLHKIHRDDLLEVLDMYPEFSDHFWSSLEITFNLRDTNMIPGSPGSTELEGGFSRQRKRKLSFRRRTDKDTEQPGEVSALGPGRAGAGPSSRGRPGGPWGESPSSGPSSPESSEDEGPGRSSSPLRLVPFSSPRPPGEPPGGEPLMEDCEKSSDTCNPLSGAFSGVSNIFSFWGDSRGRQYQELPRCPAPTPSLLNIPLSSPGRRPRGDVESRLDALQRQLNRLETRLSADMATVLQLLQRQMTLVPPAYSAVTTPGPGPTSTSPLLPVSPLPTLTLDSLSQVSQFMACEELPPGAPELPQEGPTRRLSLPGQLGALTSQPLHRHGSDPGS

SMILES	hERG current change (%, negative = inhibition) at 10uM
Cc1ccc(S(=O)(=O)N2CCC(C(=O)NCCc3ccccc3)CC2)cc1	-0.42%
CC(C)c1ccc(Nc2cnn(C34CC5CC(CC(CC(=O)O)(C5)C3)C4)c(=O)c2Cl)cc1	-5.59%
N#CCSc1nnc(CNc2ccc(F)cc2)o1	3.67%
Cn1c2ccccc2c(=O)c2ccc(C#CC3(N)CCCCC3)cc21	-12.3%
CCn1c(-c2nn(-c3ccccc3)ccc2=O)n[nH]c1=S	13.8%
Cc1noc(C)c1CSc1ccccc1C(=O)N1CCN(c2ccccc2)CC1	-39.6%
O=C(COC(=O)Cc1ccccc1)Nc1nnc(-c2ccccc2)o1	-16.8%
CCn1nc(NC(C)=O)c2cc3ccc(C)cc3nc21	4.73%
COc1ccccc1-c1nc(N)n[nH]1	14.4%
COc1ccc(CCC(=O)N/N=C/c2ccc3c(c2)OCO3)cc1	-5.24%
CC(=O)Nc1ccc(OC(=O)c2cccnc2)cc1	13.3%
CSc1ccc(C(=O)N2CCC(n3nccc3NC(=O)C3CC3)CC2)cc1	-46.6%
CCOc1ccc(OCc2ccc(C(=O)OCc3ccccn3)o2)cc1	-17%
CCN1CCN(C(=O)c2ccc(-c3nc4ccccc4s3)s2)CC1	-26%
COc1cccc(NC(=O)COC(=O)c2c3c(nc4ccccc24)CCC(C)C3)c1 (stereo not drawn)	-17.1%
O=C(COC(=O)C(c1ccccc1)c1ccccc1)NCc1ccco1	-45.7%
CCN1CCN(CC(=O)Nc2ccc(C(C)=O)cc2)CC1.Cl	-8.61%
CN1CCC2(CC1)N=C(c1ccc(F)cc1)C(=S)N2C(=O)c1ccccc1	-6.2%
CN(C)C(CNC(=O)c1cc(S(=O)(=O)N(C)Cc2ccccc2)ccc1Cl)c1ccco1 (stereo not drawn)	-24.8%
Cc1cccc(C)c1NC(=O)COC(=O)CNC(=O)C1CCCCC1	16.6%
Cc1cc(C)n(C(=O)c2ccc(C)c(S(=O)(=O)N3CCCCC3)c2)n1	-9.66%
C/C(=N\NC(=O)c1cccc(S(=O)(=O)N2CCCC2)c1)c1ccc(OCC(=O)N(C)C)cc1	-10.3%
CCOC(=O)c1ccc2[nH]cc(C(C)=O)c(=O)c2c1	0.366%
CN1CCN(CC(=O)Nc2cccc(S(=O)(=O)N(C)c3ccccc3)c2)CC1	-25.6%
CC(=O)c1sc(NC(=O)Cc2c(F)cccc2Cl)nc1C	-14.2%
COc1ccc(N2C(=O)CC(N3CCC(c4nc5ccccc5[nH]4)CC3)C2=O)cc1 (stereo not drawn)	-15.6%
CC1=C(C)CC(C(=O)NCc2ccccn2)C(C(=O)O)C1 (stereo not drawn)	12.5%

SMILES	hERG current change (%, negative = inhibition) at 10uM
CCCCn1c(N)c(NCc2ccccc2)c(=O)[nH]c1=O	-2.17%
COc1cccc(N2CCN(C(=O)c3cccc(N4C(=O)NC5CC4(C)Oc4c(OC)cccc45)c3)CC2)c1 (stereo not drawn)	22.9%
CC(=O)Oc1ccc2c3c(c(=O)oc2c1C)CCCC3	13.3%
CN(C)CCOC(=O)C12CC3CC(C1)CC(C(=O)OCCN(C)C)(C3)C2.Cl	16.5%
CC1Cc2nc(SCC(=O)Nc3ccc4c(c3)OCCO4)n(C)c(=O)c2S1 (stereo not drawn)	-9.87%
COc1cccc(/C=C2/SC(=S)N(CC(=O)NC3C=CS(=O)(=O)C3)C2=O)c1 (stereo not drawn)	24.1%
CCOc1cc(Cl)c(NC(C)=O)cc1OCC	10%
CCCCn1c(N)c(N(CC(C)C)C(=O)c2ccc(S(=O)(=O)N3CCC(C)CC3)cc2)c(=O)[nH]c1=O	-6.16%
Cc1cc(NC(=O)CN2CCN(Cc3ccccc3)CC2)nc2c1c(=O)oc1ccccc12	0.836%
CCOc1ccc(C(C(=O)NC(C)(C)C)N(CCOC)C(=O)CCC(=O)Nc2nccs2)cc1 (stereo not drawn)	5.85%
CC(O)c1nc2ccc(Cc3ccc4nc(C(C)O)[nH]c4c3)cc2[nH]1 (stereo not drawn)	-2.63%
COc1ccc(NC(=O)CCCC(=O)O)cc1Cl	3.86%
Cc1ccc2cc(CN(CC3CCCO3)C(=O)Nc3ccccc3F)c3nnnn3c2c1 (stereo not drawn)	8.59%
O=C(CCCC(=O)OCC(=O)c1cccs1)Nc1ccc(Oc2ccccc2)cc1	5.16%
CN(C)CCCNC(=O)C(=O)NCC1OCCN1S(=O)(=O)c1cc(F)ccc1F (stereo not drawn)	-8.23%
CCn1c(SCC(=O)Nc2nnc(C)s2)nnc1-c1ccncc1	7.45%
COc1ccc(F)cc1S(=O)(=O)NCc1ccccc1	-3.36%
Cc1sc2nc(SCC(=O)NCc3cccs3)[nH]c(=O)c2c1C	19.7%
O=C1CC(c2ccc(Cl)cc2)CC(=O)C1CS(=O)(=O)c1ccccc1 (stereo not drawn)	8.77%
COc1cccc(CC(NC(C)=O)C(=O)NC2CCN(S(=O)(=O)c3ccc4ccccc4c3)CC2)c1 (stereo not drawn)	3.4%
COc1cc(/C=N/n2c(SC)nnc(C(C)(C)C)c2=O)ccc1O	-2.48%
COc1ccc(C(=O)NC(=O)COC(=O)c2ccc3ncsc3c2)cc1	9.23%
O=C(O)CC(C(=O)O)c1ccc(OCCCCOc2ccc(C(CC(=O)O)C(=O)O)cc2)cc1 (stereo not drawn)	13.4%
Clc1ccc2c(c1)C(c1ccccc1Cl)=NCc1nnc(N3CCN(CCOc4ccccc4)CC3)n1-2.O=C(O)/C=C/C(=O)O	-72.7%
CC[C@@H]1[C@H]2CCCC(=O)N3CC[C@@H](C[C@@H]1OC(=O)Nc1ccccc1)[C@@H]23	-19.3%
O=C(O)c1cc(/C=C/c2ccc(N3CCOCC3)c([N+](=O)[O-])c2)nc2ccccc12	5.51%
CCOCCOC(=O)c1[nH]c2c(c1C)C(=O)CC(c1ccc(N(C)C)cc1)C2 (stereo not drawn)	0.636%
